The values below come from ChEMBL document CHEMBL4888484, “Replenishing the malaria drug discovery pipeline: Screening and hit evaluation of the MMV Hit Generation Library 1 (HGL1) against asexual blood stage Plasmodium falciparum ,using a nano luciferase reporter read-out” (2022).

By % Inhibition is commonly meant the drop in the measured response relative to a control, in per cent.

About 540 (0.36%) of roughly 150,000 compounds showed an effect of 50% or more. The list shows a part of the results.

The assay relates to Plasmodium falciparum. The experiment in a line: Primary screen in NF54 nanoGlo assay, in single point, at 2uM, 72h; a lower Z score goes with more inhibition. Particulars: timepoint 72 hour. It counts as functional, Erythrocyte.
On to `O=C1Nc2cc(C(=O)N3CCN(c4ccccn4)CC3)ccc2Nc2ccccc21`, for which the “% Inhibition” value is -8% and the Z score was determined as 1.48.
For `Cn1c(-c2ccncc2)nc2cc(C(=O)N[C@H](c3ccco3)C(F)(F)F)cc(NC(=O)C3CCC3)c21`, in that order: -15% and 1.72.
On to `Cc1[nH]nc(CCC(=O)N2CCN(Cc3ccc4c(c3)OCO4)CC2)c1C`, for which the “% Inhibition” value was -13% and the Z score amounted to 1.96.
As for `CCOc1nccn2c(CNC(=O)c3cccnc3)nnc12`, the “% Inhibition” value was found to be 11% and the Z score is on record as -1.41.
For `O=C1CC[C@@]2(CCCN(c3nc(CO)cs3)C2)CN1CCO`, in that order: 2% and -0.37.
For the molecule `Cc1nc(N2CC[C@@H](O)C2)ncc1-c1ccc2c(c1)C(C)(C)CO2`, the “% Inhibition” value was -3% and the Z score was 0.44.
For `CC(C)CCNC(=O)c1[nH]cnc1C(=O)NC(c1ccccc1)c1ccccc1`, in that order: 12% and -1.44.
Consider `Cc1ccc(-c2cc3c4nn(CC(=O)Nc5ccc(F)cc5F)c(=O)n4ccn3n2)cc1C`, for which the “% Inhibition” value is listed as 5% and the Z score is recorded as -0.66.
Regarding `Cc1cccc(NC(=O)C(Oc2ccccc2)C(=O)Nc2cccc(C)c2)c1`, the “% Inhibition” value is reported as -14% and the Z score worked out at 2.72.
In the case of `Fc1cc(Nc2ncnc3sccc23)ccc1N1CCOCC1`, the “% Inhibition” value was -11% and the Z score came out at 1.35.
For `COc1cc(NC(=O)N(C)Cc2cccc(F)c2)ncn1`, in that order: 6% and -0.52.
Regarding `O=C(c1ccc(C(F)(F)F)nc1)N1C2CCC1CC(n1cncn1)C2` (stereo unspecified), the “% Inhibition” value is listed as -6% and the Z score turned out to be 1.14.
Turning to `CCCCn1nc(C)nc1-c1c(C)nn(C)c1C`, the “% Inhibition” value is 6% and the Z score is listed as -0.78.
For `O=C(Nc1ccc(F)c(NC(=O)C2CCCCC2)c1)c1ccc(F)cc1F`, in that order: -10% and 1.29.
Taken in the same sequence, the figures for `CCN(C)C(=O)C1C2C(=O)N(CCc3ccc(C)cc3)C[C@@]23C=C[C@@H]1O3` (stereo partly specified) were 0% and -0.02.
As for `Cc1ccc(N2CCC(N[C@H]3CCOC[C@@H]3OCC(=O)O)CC2)cc1`, the “% Inhibition” value was -11% and the Z score was determined as 1.31.
Taken in the same sequence, the figures for `COc1cccc(-n2c(=O)n(Cc3ccccc3)c(=O)c3c2ncn3Cc2cccc(Cl)c2)c1` were -8% and 0.74.
In the case of `CC(=O)N1CCCN(C(=O)c2cc3ccc(C(C)(C)C)cc3[nH]2)CC1`, the “% Inhibition” value is -8% and the Z score was 1.06.
Taken in the same sequence, the figures for `Cc1noc(C)c1Cn1ccn2nccc2c1=O` were 4% and -0.46.
For `COCCN1CCC[C@H](C(=O)N2CCN(c3ccccc3O)CC2)C1`, in that order: -15% and 1.37.
Taken in the same sequence, the figures for `CC(C)COc1ccc(CC(=O)NS(=O)(=O)C(C)C)cc1` were 10% and -1.94.
With `CCCc1cc(C(=O)NC[C@H]2CCCN(C)C2)ccn1`, the “% Inhibition” value is -3% and the Z score is given as 0.49.
Regarding `Clc1ccc(COc2ccc(Cl)cc2CNCCCn2ccnc2)c(Cl)c1`, the “% Inhibition” value is 94% and the Z score is -11.1.
Taken in the same sequence, the figures for `N#Cc1ccc(N[C@@H](CN)C2CCCCC2)cc1` were 1% and -0.1.
For `CCCn1nc(C)c(C(=O)NCc2ccc(C(C)=O)c(C)n2)c1C`, in that order: -7% and 0.74.
As for `Cc1cc(-c2nc(C3(C(=O)OC(C)(C)C)CCC3)no2)n[nH]1`, the “% Inhibition” value was determined as 11% and the Z score is on record as -1.91.
For `COC(=O)c1cc(O)cc(C(=O)N[C@H]2CCC(=O)N(C)C2)c1`, in that order: -14% and 2.04.
Consider `COc1ccccc1N(CCC(N)=O)C(=O)CN1CCC(NC(=O)c2ccc(F)cc2)CC1`, for which the “% Inhibition” value is -9% and the Z score was determined as 0.9.
Regarding `O=C(c1ccc(CN2C(=O)CCn3nccc32)cc1)N1CCN(c2cccc(Cl)c2)CC1`, the “% Inhibition” value is listed as 13% and the Z score is reported as -1.57.
As for `CC1CCN(S(=O)(=O)c2ccc3c(ccc(=O)n3CC(=O)Nc3cccc(F)c3)c2)CC1`, the “% Inhibition” value is listed as -10% and the Z score worked out at 1.3.
For `Brc1cc2c(cc1Cn1nnc(C3CC3)n1)OCCO2`, in that order: 7% and -0.9.
For the molecule `CC(C)NC(=O)c1cc(Cl)c(O)c(Cl)c1`, the “% Inhibition” value is listed as -3% and the Z score stood at 0.23.
Taken in the same sequence, the figures for `C[C@H](NC(=O)CCCc1ccc(O)c(F)c1)c1ccc(N2CCN(C)CC2)cc1` were -12% and 2.27.
As for `O=C1C[C@@H](C(=O)Nc2ccc3c(c2)OCO3)c2c(nc(N3CCC(Cc4ccccc4)CC3)[nH]c2=O)N1`, the “% Inhibition” value was -3% and the Z score stood at 0.54.
Take `Cc1ccc(CCn2c(C)c(C)c(S(=O)(=O)c3ccc(Cl)cc3)c2N)cc1`: the “% Inhibition” value is recorded as -10% and the Z score came out at 1.27.
Taken in the same sequence, the figures for `COc1cc(-c2cc(CN(Cc3ccc(F)cc3)C(=O)c3ccccc3)no2)cc(OC)c1OC` were -5% and 0.66.
With `CC(=O)Nc1ccc(-c2c3c(C)nn(-c4ccccc4)c3nc3[nH]c(=O)[nH]c(=O)c23)cc1`, the “% Inhibition” value is reported as 8% and the Z score is listed as -1.48.
Taken in the same sequence, the figures for `O=C1[C@@H]2CCCN2C(=O)N1CC1(O)CCCCC1` were 5% and -0.69.
Taken in the same sequence, the figures for `Cn1c(C2CCC2)nc2cc(C(=O)NCCc3c[nH]c4ccccc34)cc(NC(=O)[C@@H]3CCCO3)c21` were 14% and -1.93.
For `C[C@H](NS(C)(=O)=O)C(=O)N1CCC(c2nc3c(s2)CCCC3)CC1`, in that order: -8% and 1.52.
For `Cc1ccc(-c2nc(N(C)C[C@@]3(C)CCN(C)C3)ncc2-c2cncnc2)cc1`, the “% Inhibition” value is -14% and the Z score was 1.89.
Taken in the same sequence, the figures for `CN(CCc1ccccc1)c1cnn(CCn2cccn2)c(=O)c1` were -15% and 2.83.
Taken in the same sequence, the figures for `COc1ccc(CCN2C(=O)N[C@@H](CC(=O)NCCn3cnc4ccccc43)C2=O)cc1` were 1% and -0.07.
For `C[C@@H](CCc1ccccc1)N1CCC(=O)N(Cc2ccncc2)CC1`, in that order: -2% and 0.25.
For `Cn1cccc1CCC(=O)N1C[C@H]2C[C@H](O)[C@@H](O)C[C@H]2C1`, the “% Inhibition” value is recorded as -12% and the Z score is on record as 1.99.
Taken in the same sequence, the figures for `CCCc1cc(C(=O)N2CC[C@@]3(CCCN(Cc4cccc(OC)c4OC)C3)C2)n(C)n1` were 7% and -1.07.
As for `Cc1nccc(C(=O)N(C)C2CCCCCCC2)n1`, the “% Inhibition” value is given as -7% and the Z score was found to be 1.31.
For `Cc1cccnc1[C@@H](NC(=O)c1ccn(C)c1C)C1CC1`, in that order: -4% and 0.5.
For `CNS(=O)(=O)c1ccc2c(c1)N(CC(=O)c1cc(C)[nH]c1C)CC2`, in that order: -5% and 0.69.
For `COCCNC(=O)c1ccc(Cl)s1`, the “% Inhibition” value is -15% and the Z score is listed as 2.06.
Taken in the same sequence, the figures for `Cc1cc(Cn2ccnc2-c2ccc3c(c2)CC(C)(C)O3)no1` were -8% and 1.49.
For `O=C1CCCCCN1CCc1nc([C@H]2CCOC2)no1`, in that order: 18% and -2.38.
For `Cc1cc(NS(=O)(=O)CCC2Cc3ccccc3C2)ccc1O`, in that order: -4% and 0.74.
In the case of `COc1ccc(C(=O)N2CCC3(CC2)C[C@@H](CCOc2cccnc2)CCO3)cc1`, the “% Inhibition” value turned out to be 5% and the Z score is -0.91.
`Cc1cc(NC(=O)c2cccnc2)cc(-c2nc3ncccc3o2)c1O`: the “% Inhibition” value is -15% and the Z score is reported as 2.23.
With `CCn1nc(CN2CCC(NC(=O)c3ccc(F)cn3)CC2)c2c1CCOC2`, the “% Inhibition” value is listed as -3% and the Z score came to 0.57.
For `Cc1ccc(S(=O)(=O)N2CCC(c3nc4cc(C(=O)NCc5cccs5)ccc4n3C3CCCCC3)CC2)cc1`, in that order: 17% and -2.83.
For `CC(C)(Oc1ccc2c(c1)CCC2)C(=O)NCCc1nnc(N)s1`, in that order: -12% and 1.15.
Taken in the same sequence, the figures for `Cn1cccc1C(=O)NCc1nc(C2CCOCC2)no1` were -11% and 1.47.
As to `OC1(Cc2ccccn2)CCN(Cc2ncnn2CCF)CC1`, the “% Inhibition” value is -2% and the Z score is 0.33.
Taken in the same sequence, the figures for `CCn1c(Cn2nc(C)c(C)c(C#N)c2=O)nc2cc(F)ccc21` were -23% and 2.86.
Regarding `CC(c1nnc(-c2cccs2)o1)N1CCCCC1Cn1cncn1` (stereo unspecified), the “% Inhibition” value is recorded as -4% and the Z score stood at 0.4.
Take `CC(C)(C)OC(=O)[C@@](C)(O)CNC(=O)c1cc(C#N)c[nH]1`: the “% Inhibition” value turned out to be 0% and the Z score was determined as 0.09.
Taken in the same sequence, the figures for `Fc1ccc(-c2ccc(N3CCCC3)nn2)c2ncccc12` were 3% and -0.4.
For `Cc1cc(-c2cnn([C@@H]3CCCCO3)c2)ccn1`, in that order: -3% and 0.61.
For `O=C(CS(=O)(=O)Cc1cc(Cl)c2c(c1)OCCCO2)NC1CCCCCC1`, in that order: 35% and -4.72.
Regarding `COc1ccc(-c2noc(-c3ccc(N4CCCC4)nc3)n2)cc1`, the “% Inhibition” value is listed as -4% and the Z score was determined as 0.41.
For `CC(C)[C@@H]1CN(C)CCN1C(=O)c1ncc(C#N)cc1Cl`, in that order: -2% and 0.4.
For `COCC(O)CN(C)C(=O)C(C)c1cccs1` (stereo unspecified), in that order: -13% and 2.41.
Take `O=C(NC1(C(=O)O)CCc2ccccc21)C1CCCCO1` (stereo unspecified): the “% Inhibition” value turned out to be 3% and the Z score was -0.26.
For `Nc1ncc2[nH]ccc2c1Br`, in that order: -3% and 0.55.
Take `O=C(c1ccc(-c2ccc(Cl)c(Cl)c2)cc1)N1CC[C@H](n2nccn2)C1`: the “% Inhibition” value worked out at 10% and the Z score was -1.39.
`COCc1cccc(-c2ccc3c(c2)OCCNC3)n1`: the “% Inhibition” value was -5% and the Z score is reported as 0.96.
On to `Cc1ccc(C)c(S(=O)(=O)N2CC(N(C(=O)NC(C)C)C3CCOCC3)C2)c1`, for which the “% Inhibition” value is recorded as -1% and the Z score is reported as 0.16.
For `CC1CN(C(=O)C2(C)CCC2)CCN(C(=O)C2(C)CCC2)C1`, in that order: 14% and -1.63.
Taken in the same sequence, the figures for `CCN(CCn1cccn1)Cc1c(C)nn(-c2ccccc2)c1C` were -2% and 0.41.
Taken in the same sequence, the figures for `Cc1nc(COCC(F)(F)C(F)F)n(-c2ccccc2C(=O)O)n1` were -6% and 1.14.
On to `Cc1cnc(COCC(=O)NC(C)(C)Cc2ccc(Br)c(C)c2)o1`, for which the “% Inhibition” value is listed as -9% and the Z score is recorded as 1.67.
Regarding `CCOC(=O)N1CCN(C(=O)c2ccc(-c3cncc(OC)c3)cc2)CC1`, the “% Inhibition” value is reported as -9% and the Z score is 0.91.
Take `O=C(Cc1cccnc1)N1CCC=C(F)C1`: the “% Inhibition” value is on record as -6% and the Z score is 0.6.
Taken in the same sequence, the figures for `C[C@@]12CN(C(=O)[C@@H]3CCCO3)C[C@@H]1CN(S(=O)(=O)C(F)(F)F)C2` were -4% and 0.57.
Taken in the same sequence, the figures for `Cc1c[nH]c(CCN2C[C@@](C)(c3ccccc3)CCC2=O)n1` were -2% and 0.33.
Taken in the same sequence, the figures for `O=C(c1ccc(C2CCCCC2)cc1)N1CCC[C@H](c2nnn[nH]2)C1` were 1% and -0.11.
